The values below come from PubChem BioAssay AID485344 (National Center for Advancing Translational Sciences (NCATS), 2010).

“And” between values parts separate entries of the source, which are not always exact repeats. Equal values may be shown once. Among all 340,000 compounds or so, about 6,900 (2%) were called active. No stated cut-off is given here; in the data, active means inhibition above about 30%; inactive means below that, where a call was filed. This is a selection; strong and weak results do not stand in their true shares. Entries without a call were filed so in the source.

The target in this test is D(2) dopamine receptor (Homo sapiens) (UniProt P14416). The experiment in a line: HTS Assay for Allosteric Antagonists of the Human D2 Dopamine Receptor: Primary Screen for Antagonists. Further: 0% is about no effect. To be noted: HEK293 TREx D2 cells, calcium flux, dopamine EC80; at 10 µM; stronger effect = higher value. The procedure, abridged: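 Inhibition of EC80 dopamine-driven calcium flux, recorded kinetically, defines activity here; cells are a tetracycline-induced HEK293 T-REx line expressing force-coupled D2.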
Chain of UniProt P14416 (P14416 whole entry, looked up): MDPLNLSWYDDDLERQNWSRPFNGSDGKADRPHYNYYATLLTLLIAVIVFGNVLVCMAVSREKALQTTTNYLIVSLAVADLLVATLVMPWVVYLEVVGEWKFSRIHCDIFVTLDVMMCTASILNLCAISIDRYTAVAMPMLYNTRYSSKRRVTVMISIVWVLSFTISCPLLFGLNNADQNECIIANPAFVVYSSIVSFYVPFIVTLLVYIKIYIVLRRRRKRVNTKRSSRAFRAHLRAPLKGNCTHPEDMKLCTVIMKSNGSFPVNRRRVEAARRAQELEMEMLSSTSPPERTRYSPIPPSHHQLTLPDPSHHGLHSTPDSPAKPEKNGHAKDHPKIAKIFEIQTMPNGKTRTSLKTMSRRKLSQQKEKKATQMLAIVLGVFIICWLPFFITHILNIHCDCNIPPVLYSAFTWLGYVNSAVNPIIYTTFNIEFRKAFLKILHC
For `COc1ccc(-c2nc3ccc(C(=O)NCc4ccc(C)cc4)cc3nc2-c2ccc(OC)cc2)cc1`, the inhibition (commonly the drop in the measured response relative to a control, in per cent) was found to be 9.08%.
The figure for `Cc1cc(=O)[nH]c(SCC(=O)N2CCN(c3ccccc3)CC2)n1` is 7.92%; for `COc1ccc(Cl)cc1-n1c(CCC(=O)O)ccc1-c1ccc(C)cc1` it is 21.3%.
On to `O=C(CC1N=C2c3ccccc3N=C(SCc3ccccc3Cl)N2C1=O)NC1CCCCC1` (centres undefined), for which the inhibition was determined as 20.3%.
On to `CC1CCN(S(=O)(=O)c2ccc3c(c2)N(CC(=O)Nc2ccc(F)c(Cl)c2)C(=O)CO3)CC1`, for which the inhibition came to 4.58%.
Turning to `Cc1cccc(NC(=O)Cn2c(=O)n(Cc3ccc4c(c3)OCO4)c(=O)c3ccccc32)c1`, the inhibition turned out to be 7.74%.
With `CCS(=O)(=O)c1c(Nc2ccc(F)c(Cl)c2)sc(C(=O)c2ccccc2)c1N`, the inhibition is -3.27%.
For `CCOc1ccc(-c2ccc(NS(=O)(=O)c3cc(C)ccc3OC)cc2)nn1` the value was 17.9%; for `Cc1ccc(N2CCN(C(=O)c3nn(C)c4c3CS(=O)(=O)c3ccccc3-4)CC2C)cc1` (centres undefined), -23.3%; for `O=c1c2oc3ccccc3c2n(Cc2ccccc2F)c(=O)n1Cc1ccco1`, 7.62%.
For `Cc1c(CNCCCc2ccccc2)c(C(=O)O)c(C)n1Cc1ccc(Cl)cc1` the value was 5.3%.
For `Cc1ccc(Cn2cc(CCC(=O)NC3CCCCC3)c3ccccc32)cc1` the value was 10%; for `CCCCCSc1nnc2c(n1)OC(c1ccc(C)s1)N(C(C)=O)c1ccccc1-2` (centres undefined), 3.16%.
`COc1ccc(S(=O)(=O)NC2(C(F)(F)F)NC(=O)N(CCc3ccccc3)C2=O)cc1` (centres undefined): the inhibition came out at 25.7%.
The figure for `Oc1ccccc1-c1nc(/C=C/c2ccc(F)cc2)no1` is 8.08%.
For `Cc1c(Cl)cccc1N1CC(c2nc3ccccc3n2Cc2ccccc2F)CC1=O` (centres undefined) the value was -11.2%.
For `Cc1cccc(N2CCN(C(=O)Nc3ccc(F)cc3)CC2C)c1` (centres undefined) the value was -10.7%; for `Cc1ccccc1NC(=O)Nc1nnc(N(C)Cc2ccccc2)s1`, -5.4%; for `Cc1cc(C)cc(C(=O)Nc2ccc(-c3cn4cccnc4n3)cc2)c1`, -3.04%.
For the molecule `COC(=O)c1ccccc1NC(=O)c1nc(SCc2ccccc2C)ncc1Cl`, the inhibition came to 1.2%.
Regarding `COc1ccc(-n2cc3c(c2-c2cccc(Br)c2)c(=O)n(C)c(=O)n3C)cc1OC`, the inhibition was -19.5%.
The figure for `COc1ccc(-c2cc(C(F)(F)F)nc(SCC(=O)NCc3ccc(F)cc3)n2)cc1` is -6.21%.
As to `O=C(OCC(=O)N1CCN(c2ccccc2)CC1)c1cccc([N+](=O)[O-])c1`, the inhibition was active: 30.3%.
`COc1cccc(NC(=O)Cn2c(=O)n(Cc3ccccc3)c(=O)c3c4c(sc32)CN(C(C)=O)CC4)c1`: the inhibition is -2.83%.
As to `CCCCc1ccc(NC(=O)Cn2cnc3c2c(=O)n(C)c(=O)n3C)cc1`, the inhibition was determined as 1.53%.
With `CCN(C(=O)c1sc2nc3n(c(=O)c2c1C)CCCCC3)c1ccccc1F`, the inhibition came out at 13.3%.
Turning to `O=C(c1cc([N+](=O)[O-])ccc1Cl)N1CCN(Cc2ccc3c(c2)OCO3)CC1`, the inhibition was active: 44.2%.
For `Cc1ccc(NC(=O)Nc2nnc(N3CCCCC3)s2)c(C)c1` the value was -0.16%; for `CCc1ccc(CNC(=O)c2cc3c(=O)oc4ccc(C)cc4c3s2)cc1`, -10.5%.
`COc1ccc(NC(=O)c2ccc3snnc3c2)cc1OC`: the inhibition is -1.85%.
For `CN(C)C(=O)c1ccc(S(=O)(=O)NCc2ccccc2Cl)s1` the value was 15.5%; for `COc1cc(OC)cc(-n2c(=O)[nH]c3cc(C(=O)NCCc4ccc(C)cc4)ccc3c2=O)c1`, 12.3%; for `O=C(CCSCc1ccccc1F)N1CCN(c2ccc(F)cc2)CC1`, -10.7%.
On to `Cn1cc(C(=O)NCc2ccc(F)cc2)c(=O)c2cc(S(=O)(=O)N3CCCCC3)ccc21`, for which the inhibition was determined as 22.9%.
The figure for `CCOc1ccccc1NC(=O)Cn1c(=O)n(Cc2ccc(C(=O)NCCCOC)cc2)c(=O)c2ccccc21` is -9.45%; for `O=C(O)c1cccc(NC(=O)c2cccc(S(=O)(=O)Nc3cccc(C(=O)O)c3)c2)c1` it is -2.26%.
`CCn1c(=O)c2cc(C(=O)N(C)c3cc(C)ccc3C)sc2c2ccccc21`: the inhibition is -8.09%.
Regarding `CC(C)c1ccc(Nc2nc3ccc(C(=O)c4ccccc4)cc3n3cnnc23)cc1`, the inhibition was -1.93%.
The figure for `CCOc1ccc(Sc2cc(C(=O)NCCc3ccc(OC)c(OC)c3)c3ccccc3n2)cc1` is 9.65%; for `COc1ccc(-c2nn(-c3ccccc3)cc2C(=O)Nc2ccccc2OC)cc1` it is 13.9%.
For the molecule `CCn1cc(C(=O)N2CCN(c3ccccc3OC)CC2)c(=O)c2cc(S(=O)(=O)N3CCCCC3)ccc21`, the inhibition was determined as 13.6%.
For `CC(C)CN(c1ccccc1)S(=O)(=O)c1nnc(NC(=O)c2ccco2)s1` the value was 3.66% and active: 67.8%.
`CC(=O)c1c(C)oc2ccc(N(C(=O)Oc3ccccc3)S(=O)(=O)c3ccc(Br)cc3)cc12`: the inhibition was 5.27%.
For `Cc1cccc(C(=O)Nc2ccccc2-c2nc(-c3ccccc3)no2)c1` the value was -4.3%; for `CC1=C(c2ccc(C)c(C)c2)S(=O)(=O)N=C1N1CCN(c2cccc(C(F)(F)F)c2)CC1`, -7.14%; for `O=C(/C=C/c1cccc(F)c1)NC1CCN(Cc2ccccc2)CC1`, active: 56.4%.
For `Cc1ccc(NC(=O)Cn2c(=O)n(-c3ccc(CC(=O)NCC4CCCO4)cc3)c(=O)c3ccccc32)cc1` (centres undefined) the value was 5.4%; for `CCOc1ccc(-n2c(=O)c3c4c(sc3n(Cc3cccc(Cl)c3)c2=O)CCCC4)cc1`, 7.52%; for `COCCCNC(=O)Cn1c(=O)n(CCCC(=O)NCc2ccc(C)cc2)c(=O)c2ccccc21`, 11.4%.
In the case of `CCCC(=O)N(c1ccc2oc(-c3ccccc3)c(C(=O)OCC)c2c1)S(=O)(=O)c1ccc(C)cc1`, the inhibition was 2.25%.
The figure for `Cc1ccc(/C=C(\C#N)c2nc(-c3cc4c(ccc5ccccc54)oc3=O)cs2)cc1` is 3.76%.
On to `O=C(NCC(c1ccc2c(c1)OCO2)N1CCOCC1)c1ccc(F)cc1` (centres undefined), for which the inhibition was -19.6%.
As for `CCCCN1CC(c2nc3ccccc3n2CCCCOc2c(C)cccc2C)CC1=O` (centres undefined), the inhibition worked out at 7.07%.
The figure for `Cc1cc(C)c2c(c1)[C@@H]1C=CC[C@@H]1[C@H](c1ccc(S(=O)(=O)N3CCOCC3)cc1)N2` is active: 35%; for `CCn1c(CNC(=O)c2ccc(OC)cc2)nnc1SCC(=O)Nc1cccc(C)c1C` it is 14.5%.
Turning to `CCN(CC)C(CNS(=O)(=O)c1ccc(Cl)cc1)c1ccccc1` (centres undefined), the inhibition was active: 39.3%.
For `Cc1ccc(NC(=O)CSc2nc3ccc(NC(=O)c4cccs4)cc3s2)c(C)c1` the value was 21.7%.
For `CC1CCC(C(C)C)C(OC(=O)C[n+]2cc(-c3ccc(Cl)cc3)n3c2CCCCC3)C1` (centres undefined) the value was active: 33.1%; for `CCOC(=O)c1c(C)oc2nc(C)nc(NCC3CCN(Cc4cccc(C)c4)CC3)c12`, -8.29%.
